Experiment [1] has as its system Phytophthora infestans. Description: whole plant or invertebrate. As to conditions: in Solanum lycopersicum, 168 h, read-out: inhibition of the development of the mould. The protocol:
Treatment of tomato mildew (Phytophthora infestans)
Tomato (Lycopersicum esculentum) plants, of the Marmande variety, are cultivated in pots. When these plants are a month old (5 to 6 leaf stage, height 12 to 15 cm), they are treated by spraying with a suspension or aqueous solution of the material to be tested, which is at the desired concentration and contains a surfactant which is a condensate of sorbitan monooleate with 20 molecules of ethylene oxide. This surfactant is at a concentration equal to half the concentration of the active material. Each tomato plant receives about 5 ml of the solution or dispersion. The treatment is carried out on two plants for each concentration of active material to be tested. Plants used as controls are treated with a solution which contains no active material, but contains the same surfactant at an identical concentration.
After drying for 24 hours, each plant is infected by spraying with an aqueous suspension of spores of Phytophthora infestans, which is responsible for tomato mildew, at a rate of about 5 ml/plant (that is about 50,000 spores per plant).
After this infection, the tomato plants are incubated for one day at about 15° C. in a saturated atmosphere, then for five days at about 17° C. and 70% to 90% relative humidity.
Seven days after infection, the results obtained in the case of plants treated with the active material to be tested are compared with those obtained in the case of plants used as controls.

Experiment [2] deals with Plasmopara viticola. As to the kind of experiment: Example B2: treatment of vine mildew (Plasmopara viticola) on vine cuttings. As to conditions: 192 h, 330 ppm (0.33 g/l), vine cuttings, 8 days after infection, read-out: inhibition of the development of the mould. How it is done:
Treatment of vine mildew (Plasmopara viticola)
Vine (Vitis vinifera) cuttings of the Chardonnay variety are cultivated in pots. When these plants are 2 months old (8 to 10 leaf stage, height 20 to 30 cm) they are treated in the same manner as in Example B1.
After drying for 24 hours, each plant is infected by spraying with an aqueous suspension of spores of Plasmopara viticola which is responsible for vine mildew, at the rate of about 5 ml/plant (that is about 100,000 spores per plant).
After this infection, the vine plants are incubated for two days at about 18° C. in a saturated atmosphere, then for five days at about 20°-22° C. and 90-100% relative humidity.
Eight days after infection, the results obtained in the case of the plants treated with the active material to be tested are compared with those obtained in the case of plants used as controls.

For the compound `COc1ccc(C2=C(C(=O)N3CCOCC3)C(O)c3ccccc32)cc1OC` (centres unmarked) [Compound 110, 1-(3,4-Dimethoxyphenyl)-2-morpholinocarbonyl-3-hydroxyindene], the inhibition at 1000 ppm in experiment [1] was no less than 80%. In experiment [2], the inhibition at 330 ppm was no less than 80%.

With `COc1ccc(-c2c(C(=O)N3CCCC(O)C3)sc3ccccc23)cc1OC` (centres unmarked) [Compound 164], the inhibition at 1000 ppm in experiment [1] was no less than 80%. In addition, the inhibition at 330 ppm in experiment [2] was no less than 80%.

In the case of `CCN(C)C(=O)c1ccc(-c2ccsc2)nc1-c1ccc(OC)c(OC)c1` [Compound 3118], the inhibition at 1000 ppm in experiment [1] is no less than 80%. In addition, the inhibition at 330 ppm in experiment [2] is no less than 80%.

As for `COc1ccc(-c2c(C(=O)N3CCOCC3)cc(-c3ccc(F)cc3)n2C)cc1OC` [Compound 607, 5-(4-fluorophenyl)-2-(3,4-dimethoxyphenyl)-1-methyl-3-(morpholinocarbonyl)pyrrole], in experiment [1], the inhibition at 1000 ppm was no less than 80%. The inhibition at 330 ppm in experiment [2] is no less than 80%.

For the compound `COc1ccc(-c2c(Br)cccc2C(=O)N2CCOCC2)cc1OC` [Compound 223], the inhibition at 1000 ppm in experiment [1] was no less than 80%. In addition, the inhibition at 330 ppm in experiment [2] is no less than 80%.

In the case of `COc1ccc(-c2cc(-c3ccc(Cl)cc3)ccc2C(=O)N2CCOCC2)cc1OC` [Compound 237], in experiment [1], the inhibition at 1000 ppm is no less than 80%. Moreover, the inhibition at 330 ppm in experiment [2] is no less than 80%.

Turning to `COc1ccc(-c2nc(N3CCCCC3)ncc2C(=O)N2CCOCC2)cc1OC` [Compound 458], the inhibition at 1000 ppm in experiment [1] is no less than 80%. The inhibition at 330 ppm in experiment [2] is no less than 80%.

Take `C=CCN(C)C(=O)c1ccc(-c2ccc(Cl)cc2)nc1-c1ccc(OC)c(OC)c1` [Compound 386]: the inhibition at 1000 ppm in experiment [1] was no less than 80%. Also, the inhibition at 330 ppm in experiment [2] is no less than 80%.

In the case of `COc1ccc(C2=C(C(=O)N3CCOCC3)Cc3cc(OC)c(OC)cc32)cc1` [Compound 149], the inhibition at 1000 ppm in experiment [1] was no less than 80%. In experiment [2], the inhibition at 330 ppm is no less than 80%.

`COc1ccc(-c2nc(-c3ccc(Cl)cc3)ncc2C(=O)N2CCOCC2)cc1OC` [Compound 407, 2-(4-Chlorophenyl)-4-(3,4-dimethoxyphenyl)-5-morpholinocarbonylpyrimidine]: in experiment [1], the inhibition at 1000 ppm was no less than 80%. In experiment [2], the inhibition at 330 ppm is no less than 80%.

For `COc1ccc(-c2nc(-c3ccc(C(C)C)cc3)ccc2C(=O)N2CCOCC2)cc1OC` [Compound 356], the inhibition at 1000 ppm in experiment [1] was no less than 80%. Also, the inhibition at 330 ppm in experiment [2] was no less than 80%.

With `COc1ccc(-c2nc(Sc3cccc(Cl)c3)ncc2C(=O)N2CCOCC2)cc1OC` [Compound 445], the inhibition at 1000 ppm in experiment [1] was no less than 80%. The inhibition at 330 ppm in experiment [2] was no less than 80%.

As to `CCN(C)C(=O)c1ccc(-c2ccccc2)nc1-c1ccc(OC)c(OC)c1` [Compound 369], in experiment [1], the inhibition at 1000 ppm is no less than 80%. Besides, the inhibition at 330 ppm in experiment [2] was no less than 80%.

On to `COc1ccc(-c2nc(-c3cccs3)ccc2C(=O)N2CCOCC2)cc1OC` [Compound 3113], for which the inhibition at 1000 ppm in experiment [1] was no less than 80%. Also, in experiment [2], the inhibition at 330 ppm is no less than 80%.

With `COc1ccc(-c2c(C(=O)N3CCOCC3)cnn2-c2ccc(Cl)cc2)cc1OC` [Compound 608, 2-(4-Chlorophenyl)-3-(3,4-dimethoxyphenyl)-4-(morpholinocarbonyl)pyrazole], the inhibition at 1000 ppm in experiment [1] is no less than 80%. For the same compound, the inhibition at 330 ppm in experiment [2] was no less than 80%.

`COc1ccc(-c2cc(-c3ccccc3)nc(C)c2C(=O)N2CCOCC2)cc1OC` [Compound 505, N-[4-(3,4-dimethoxyphenyl)-2-methyl-6-phenylnicotinoyl]morpholine]: the inhibition at 1000 ppm in experiment [1] is no less than 80%. For the same compound, in experiment [2], the inhibition at 330 ppm is no less than 80%.

As for `COc1ccc(-c2nc(-c3ccc(C#N)cc3)ccc2C(=O)N2CCOCC2)cc1OC` [Compound 382], the inhibition at 1000 ppm in experiment [1] is no less than 80%. In experiment [2], the inhibition at 330 ppm was no less than 80%.

Consider `COc1ccc(-c2nc(-c3ccccc3)ccc2C(=O)N2CCOCC2)cc1OC` [Compound 301, N-[2-(3,4-dimathoxyphenyl)-6-phenylnicotinoyl]morpholine], for which the inhibition at 1000 ppm in experiment [1] is no less than 80%. Also, the inhibition at 330 ppm in experiment [2] is no less than 80%.

Take `COc1ccc(-c2c(C(=O)N3CCOCC3)sc3ccc([N+](=O)[O-])cc23)cc1OC` [Compound 104, 2-(4-Morpholinocarbonyl)-5-nitro-3-(3,4-dimethoxyphenyl)benzothiophene]: the inhibition at 1000 ppm in experiment [1] was no less than 80%. The inhibition at 330 ppm in experiment [2] was no less than 80%.

Regarding `COCCN(C)C(=O)c1ccc(-c2ccc(Br)cc2)nc1-c1ccc(OC)c(OC)c1` [Compound 393], in experiment [1], the inhibition at 1000 ppm is no less than 80%. Besides, the inhibition at 330 ppm in experiment [2] was no less than 80%.

Regarding `COc1ccc(C2=C(C(=O)N3CCOCC3)Cc3cc(OC)c(OC)cc32)cc1OC` [Compound 112, 2-Morpholinocarbonyl-3-(3,4-dimethoxyphenyl)-5,6-methoxyindene], the inhibition at 1000 ppm in experiment [1] is no less than 80%. The inhibition at 330 ppm in experiment [2] is no less than 80%.

With `CCN(C)C(=O)c1cnc(-c2ccccc2)nc1-c1ccc(OC)c(OC)c1` [Compound 415], the inhibition at 1000 ppm in experiment [1] was no less than 80%. Moreover, the inhibition at 330 ppm in experiment [2] is no less than 80%.

As for `COc1ccc(-c2c(C(=O)N3CCOCC3)sc3ccccc23)cc1OC` [Compound 118], in experiment [1], the inhibition at 1000 ppm was no less than 80%. Further, the inhibition at 330 ppm in experiment [2] is no less than 80%.

In the case of `COc1ccc(-c2cc(-c3ccc(C)cc3)ccc2C(=O)N2CCOCC2)cc1OC` [Compound 203], the inhibition at 1000 ppm in experiment [1] is no less than 80%. For the same compound, the inhibition at 330 ppm in experiment [2] was no less than 80%.

With `CCN(CC)C(=O)c1ccc(Br)cc1-c1ccc(OC)c(OC)c1` [Compound 205], the inhibition at 1000 ppm in experiment [1] is no less than 80%. The inhibition at 330 ppm in experiment [2] is no less than 80%.

Regarding `COc1ccc(-c2nc(-c3ccc(Cl)cc3)ccc2C(=O)N(C)CC2CCCO2)cc1OC` (centres unmarked) [Compound 381], in experiment [1], the inhibition at 1000 ppm was no less than 80%.

In the case of `COc1ccc(-c2nc(-c3ccc(Br)cc3)ccc2C(=O)N2CCOCC2)cc1OC` [Compound 385], the inhibition at 1000 ppm in experiment [1] was no less than 80%. For the same compound, the inhibition at 330 ppm in experiment [2] is no less than 80%.

For the compound `COc1ccc(-c2c(C(=O)N3CCOCC3)cc(-c3ccccc3)n2C)cc1OC` [Compound 621], the inhibition at 1000 ppm in experiment [1] was no less than 80%. Also, the inhibition at 330 ppm in experiment [2] is no less than 80%.

On to `CCN(C)C(=O)c1ccc(-c2ccc(Cl)cc2)nc1-c1ccc(OC)c(OC)c1` [Compound 347], for which, in experiment [1], the inhibition at 1000 ppm was no less than 80%. In addition, the inhibition at 330 ppm in experiment [2] was no less than 80%.

As to `CCN(C)C(=O)c1ccc(Cl)cc1-c1ccc(OC)c(OC)c1` [Compound 209], the inhibition at 1000 ppm in experiment [1] was no less than 80%. The inhibition at 330 ppm in experiment [2] was no less than 80%.

On to `COc1ccc(-c2nc(-c3ccccc3C)ccc2C(=O)N2CCOCC2)cc1OC` [Compound 391], for which the inhibition at 1000 ppm in experiment [1] is no less than 80%. In experiment [2], the inhibition at 330 ppm was no less than 80%.

As to `C=C(C)c1ccc(C(=O)N(CC)CC)c(-c2ccc(OC)c(OC)c2)c1` [Compound 214], the inhibition at 1000 ppm in experiment [1] is no less than 80%. Also, the inhibition at 330 ppm in experiment [2] was no less than 80%.

Consider `COc1ccc(C2=C(C(=O)N3CCOCC3)C(OC(C)=O)c3ccccc32)cc1OC` (centres unmarked) [Compound 148], for which, in experiment [1], the inhibition at 1000 ppm is no less than 80%. Moreover, the inhibition at 330 ppm in experiment [2] was no less than 80%.

As to `COc1ccc(-c2nc(-c3ccc(C)cc3)ccc2C(=O)N2CCOCC2)cc1OC` [Compound 384], in experiment [1], the inhibition at 1000 ppm is no less than 80%. The inhibition at 330 ppm in experiment [2] was no less than 80%.

Regarding `C=C(C)c1ccc(C(=O)N(C)CC)c(-c2ccc(OC)c(OC)c2)c1` [Compound 212], the inhibition at 1000 ppm in experiment [1] is no less than 80%. The inhibition at 330 ppm in experiment [2] was no less than 80%.

Take `COc1ccc(-c2nc(SCc3ccc(Cl)cc3)ncc2C(=O)N2CCOCC2)cc1OC` [Compound 435]: the inhibition at 1000 ppm in experiment [1] was no less than 80%. Besides, the inhibition at 330 ppm in experiment [2] is no less than 80%.

`COc1ccc(-c2cc(-c3ccccc3)ccc2C(=O)N2CCOCC2)cc1OC` [Compound 202]: the inhibition at 1000 ppm in experiment [1] was no less than 80%. In addition, the inhibition at 330 ppm in experiment [2] is no less than 80%.

For `COc1ccc(-c2nc(-c3ccc(F)cc3)ccc2C(=O)N2CCOCC2)cc1OC` [Compound 349], in experiment [1], the inhibition at 1000 ppm was no less than 80%. In addition, the inhibition at 330 ppm in experiment [2] is no less than 80%.

In the case of `COCCN(C)C(=O)c1ccc(-c2ccc(F)cc2)nc1-c1ccc(OC)c(OC)c1` [Compound 353], in experiment [1], the inhibition at 1000 ppm is no less than 80%. Moreover, the inhibition at 330 ppm in experiment [2] is no less than 80%.

Consider `COc1ccc(-c2c(C(=O)N3CCOCC3)sc3cccc(F)c23)cc1OC` [Compound 129], for which, in experiment [1], the inhibition at 1000 ppm is no less than 80%. For the same compound, the inhibition at 330 ppm in experiment [2] was no less than 80%.

Regarding `CCN(CC)C(=O)c1ccc(-c2ccsc2)nc1-c1ccc(OC)c(OC)c1` [Compound 3119], the inhibition at 1000 ppm in experiment [1] was no less than 80%. Moreover, the inhibition at 330 ppm in experiment [2] was no less than 80%.

Regarding `COc1ccc(-c2c(C(=O)N3CCCC(OC)C3)sc3ccccc23)cc1OC` (centres unmarked) [Compound 166], the inhibition at 1000 ppm in experiment [1] was no less than 80%. For the same compound, the inhibition at 330 ppm in experiment [2] is no less than 80%.

A word on the inhibition: it is the relative decrease from the control value, in per cent.

For the origin of these results see US5475132A, “Antifungal agents based on amides containing a phenyl group” (Rhone-Poulenc Agrochimie, priority 1988, dated 1995).
